# PubChem BioAssay AID686971 (National Center for Advancing Translational Sciences (NCATS), 2013)
# Out of some 360,000 compounds screened, about 7,500 (2.1%) were called active. The shares of active, inactive and inconclusive entries below differ from those in the screen. The call rests on the fitted dose curve; in most records, active means well fitted cell-killing curve with a large enough effect; inconclusive means small, poorly fitted or top-dose-only effect, or effect the other way, or another doubt; inactive means no such curve, though single readings can be large or run the other way. No potency is given beside an inconclusive call; the fits are too rough.
# Test: qHTS for induction of synthetic lethality in tumor cells producing 2HG: qHTS for the HT-1080-IDH1KD cell line;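 on activity, negative = toxicity: 0% = DMSO wells and -100% = cell-free medium wells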
# Conditions: HT-1080 IDH1 knockdown viability, ATP luminescence, 48 h; activity, negative = toxicity: at 46.1 µM (top of the series) unless noted
# Procedure, shortened: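 Assay cells: HT-1080 with IDH1 knockdown, 750 per well, RPMI/5% FBS. Exposure: 48 h at 37 °C following 2 h pre-incubation. Read: CellTiter-Glo luminescence; fitted concentration-response, curve class assigned.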
# Potency means the concentration at half of the fitted maximal effect; tags describe the fitted curve by direction and shape.
SMILES,"activity, negative = toxicity",Potency
COc1ccc(N2CCC(CNC(=S)Nc3cc(C)cc(C)c3)C2)cc1 (stereo unspecified),inconclusive: -34.3% [cytotoxic],
Cc1ccc(S(=O)(=O)NN2C(=O)c3ccccc3NC2c2ccccn2)cc1 (stereo unspecified),inactive: 1.63%,
CCC(C)Nc1nc(-c2ccccn2)nc2ccccc12 (stereo unspecified),,"inconclusive [cytotoxic, single point]"
Cc1ccccc1NC(=O)COc1ccccc1C,inactive: 8.9%,
COc1ccc(C2NCCc3c2[nH]c2ccccc32)cc1CN1CCc2cc(OC)c(OC)cc2C1C (stereo unspecified),,"inconclusive [cytotoxic, single point]"
COc1ccc(NC(=O)C2(C)Cc3c(-c4ccc5c(c4)OCO5)ccnc3O2)cc1 (stereo unspecified),,"inconclusive [cytotoxic, partial curve]"
COC(=O)C1=C(C)N(Cc2ccco2)C(=O)/C1=C\c1ccc([N+](=O)[O-])cc1,,"inconclusive [cytotoxic, single point]"
Cc1cccc(C(=O)N2CCN(S(=O)(=O)N3CCCCCC3)CC2)c1,inactive: 18.2%,
CC(=O)c1cc2c(cc1NC(=O)CSc1nc3ccc(C)cc3[nH]1)OCO2,inactive: -25.5%,
CCOC(=O)[C@]12CCCC=C1N(Cc1ccco1)C(=O)[C@H](CC(=O)NCC13CC4CC(CC(C4)C1)C3)C2,,"inconclusive [cytotoxic, single point]"
CCN(C(=O)CCN1C(=O)/C(=C/c2ccccc2)SC1=S)C1CCS(=O)(=O)C1 (stereo unspecified),,"inconclusive [cytotoxic, single point]"
O=C(N/N=C/c1cc(Br)cs1)c1ccccc1[N+](=O)[O-],,"inconclusive [cytotoxic, partial curve]"
CC(C)=CCC/C(C)=C/CNC(=O)C[C@H]1C[C@H](C(=O)N(C(C)C)C(C)C)[C@@]2(C)c3[nH]c4cc(-c5ccco5)ccc4c3CCN2C1=O,,"inconclusive [cytotoxic, single point]"
COc1cc(C=C(c2nc3ccccc3s2)c2nc3ccccc3s2)ccc1O,,"inconclusive [cytotoxic, single point]"
COc1cc(C(=O)OCC(=O)Nc2sccc2C(N)=O)cc(OC)c1OC,,active: 7.31 µM
COCCNC(=O)C1(C)CCN(Cc2ccccc2C#N)C1 (stereo unspecified),,"inconclusive [rising, single point]"
CC(C)(C)c1nc(SCC(=O)NNC(=O)c2ccccc2)c2ccccc2n1,,"inconclusive [cytotoxic, single point]"
Cc1cc(C(=O)CSc2nc(N)cc(=O)[nH]2)c(C)n1CCc1ccc(F)cc1,,active: 25.9 µM
Cc1cc(OCC(=O)Nc2ccc(Br)cc2)cc2c1C(=O)CC(C)(C)O2,inactive: -3.13%,
CCN(CC)CC1C(=O)N(c2ccc(OC)cc2)C1c1ccccc1 (stereo unspecified),inactive: -14.4%,
Cc1ccccc1OCC(O)CN(Cc1ccccc1O)C1CCCCC1 (stereo unspecified),,"inconclusive [cytotoxic, single point]"
CCOC(=O)c1ccccc1NC1c2ccccc2C(=O)N1c1ccc(C)cn1 (stereo unspecified),inactive: 3.86%,
COc1cc(C(=O)N2CCN(C(=O)c3cccc4ccccc34)CC2)cc(OC)c1OC,inconclusive: -2.85% [cytotoxic],

SMILES,"activity, negative = toxicity",Potency
CN(C)CCNc1ncnc2c1sc1nc(N3CCOCC3)c3c(c12)CC(C)(C)SC3,,"inconclusive [cytotoxic, single point]"
COc1cc(S(=O)(=O)Nc2cc(C)cc(C)c2)ccc1F,,"inconclusive [cytotoxic, single point]"
O=C(COC(=O)c1ccc(Cl)cc1Cl)Nc1cccc(S(=O)(=O)NC2=NCCC2)c1,inactive: -21%,
O=C(CN1C(=O)COc2ccccc21)N(Cc1cccnc1)Cc1ccccc1F,inactive: -15.9%,
CC(Oc1ccc(Cl)cc1Cl)c1nc(-c2ccc(NC(=O)c3cccnc3)cc2)no1 (stereo unspecified),,active: 7.31 µM
CCN1C(=O)N[C@H](c2ccccc2)C(C(C)=O)=C1C,inactive: -0.0007%,
COc1ccc(C(c2c(O)ccc3ccccc23)N2CCOCC2)c(OC)c1 (stereo unspecified),,"inconclusive [cytotoxic, single point]"
COc1cc(C)c(NC(=O)C(=S)N2CCCC2)cc1C,,"inconclusive [rising, partial curve, poor fit]"
O=C(c1ccc(Cl)c(Cl)c1)N1CCC(=O)N([C@H](COCc2cccc(C(F)(F)F)c2)Cc2ccccc2)CC1,,"inconclusive [cytotoxic, single point]"
COC(=O)c1c(NC(=O)CSc2nnnn2-c2ccccc2)sc2c1CCC(C)C2 (stereo unspecified),inactive: -2.77%,
CCC1CC(C(=O)Nc2ccccc2)C(=O)O1 (stereo unspecified),inactive: 3.17%,
CCOC(=O)c1cc(CC)sc1NC(=O)C1CC1,,"inconclusive [cytotoxic, single point]"
CCCCOc1ccc(CN2CCCCC2)cc1,inactive: 2.51%,
CCN(CC)C(=O)CSc1nc(COc2ccccc2)nc2ccccc12,inactive: -10.8%,
Cc1noc(C)c1S(=O)(=O)N1CCC(C(=O)N2CCN(c3ccc(Cl)cc3)CC2)CC1,inactive: -14.7%,
COC(=O)C1(C(=O)OC)C[C@H](/C=C/c2ccccc2)N(Cc2ccccc2OC)[C@@H]1c1ccccc1,inactive: -6.55%,
COC(=O)c1c(CCl)noc1C(=O)NC(C)C,,"inconclusive [cytotoxic, single point]"
Cc1ccc(CN(C)C(=O)c2cccc(S(=O)(=O)N3CCN(Cc4ccccc4)CC3)c2)o1,inactive: -11.8%,
COc1ccc(-c2oc(NC(=O)CCl)c(C#N)c2-c2ccc(OC)cc2)cc1,,"inconclusive [cytotoxic, single point]"
CC1CCCCN1C(=O)CSc1nc(C2CC2)nc2ccccc12 (stereo unspecified),,"inconclusive [cytotoxic, partial curve]"
Cc1c(NC(=O)COC(=O)c2cc(-c3ccc(-c4ccccc4)cc3)nc3ccccc23)c(=O)n(-c2ccccc2)n1C,,"inconclusive [cytotoxic, partial curve]"
COc1ccc(CCN(C)C(=O)COc2ccc(C(=O)c3ccccc3)cc2)cc1OC,inactive: -6.3%,
Cc1ccc(NS(=O)(=O)c2ccc(NC(=O)CSc3ccc(Cl)cc3)cc2)c(C)c1,,"inconclusive [cytotoxic, single point]"
